{
  "source": "the supplement of paper PMC11417369",
  "note": "Some of the results follow.",
  "data": [
    {"test_system": "PfHDP1 homeodomain (GST-tagged)", "assay": "gcPBM binding intensity (ln(normalized median fluorescence intensity)); higher = stronger DNA binding", "method_in_brief": "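Alexa488 anti-GST antibody, scanned at 488 nm, detected GST-tagged P. falciparum DNA-binding domains that had been expressed in E. coli and incubated for 1 h on an Agilent 4 × 180k array. The array carried primer-extended double-stranded 36-bp intergenic genomic probes and negative controls. Binding intensity is the highest Masliner-normalised natural-log median intensity across replicate spots of either orientation of each probe.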", "values": [
      {"sequence": "ATTCAGTTATATAATACACACATATATTGACATTAT [CACACA_site2723]", "gcPBM binding intensity (ln)": 7.05},
      {"sequence": "TATTATATTATGTGATGTACATATTTATATAGGCCC [XGTACX_site4746]", "gcPBM binding intensity (ln)": 6.67},
      {"sequence": "TACGCTCCCAGACACACACACACACCGATATAATAT [CACACA_site8098]", "gcPBM binding intensity (ln)": 7.19},
      {"sequence": "ATTTATTGACTATTTACACACATATTTATTAAAATA [CACACA_site4980]", "gcPBM binding intensity (ln)": 7.14},
      {"sequence": "TATTACATACCTTATTGTACAAATTATATATTAAAG [XGTACX_site7334]", "gcPBM binding intensity (ln)": 6.71},
      {"sequence": "TATTGTTAAAATGAATAATTAAAACAGTAATGAATA [XGTACX_negctrl_site170]", "gcPBM binding intensity (ln)": 6.31},
      {"sequence": "TTAGCAACTATTACTACACACATTTTTATATAACTT [CACACA_site6762]", "gcPBM binding intensity (ln)": 6.89},
      {"sequence": "AAGAAATAAAGCAAAACATGCACTCGAAAATGTTTT [TGCATGCA_site1014]", "gcPBM binding intensity (ln)": 7.12},
      {"sequence": "CGCATGCAATGTTAATGTACATATATATATATATGT [XGTACX_site3316]", "gcPBM binding intensity (ln)": 6.66},
      {"sequence": "TATATATGTTTTTATGTACACACTTTTAACCTAAGA [CACACA_site1149]", "gcPBM binding intensity (ln)": 6.76},
      {"sequence": "ATGTCTAATTTTGATGCACACTTTTGTGCAATTAAA [CACACA_site5589]", "gcPBM binding intensity (ln)": 11},
      {"sequence": "AGGTGCAAAAATAAAACATGCAAAAATAAAAATGAA [TGCATGCA_site502]", "gcPBM binding intensity (ln)": 10.7},
      {"sequence": "AATAGTCGTGTGCATACACACCTTAACTATAATATA [CACACA_site6636]", "gcPBM binding intensity (ln)": 8.71},
      {"sequence": "TAATAAAAAATATATACACACAAATAAATAAATAAA [CACACA_site4037]", "gcPBM binding intensity (ln)": 6.73},
      {"sequence": "AATAATTAAATAAGAGTGCATGAAACAGGAAATTTC", "gcPBM binding intensity (ln)": 7.68},
      {"sequence": "TATTTATCTATTTTGTTATATAATAAAATAAAATAA [CACACA_negctrl_site281]", "gcPBM binding intensity (ln)": 6.24},
      {"sequence": "AAACAATTGAATAAATGTACAGATACATTTTTTTAA [XGTACX_site5386]", "gcPBM binding intensity (ln)": 6.09},
      {"sequence": "AAAAATAAACAAAATTGTACACATTACATACATATA [XGTACX_site966]", "gcPBM binding intensity (ln)": 6.73},
      {"sequence": "GAAAAAACGAAAAAAATACACACCTGAAAAGATATG [CACACA_site887]", "gcPBM binding intensity (ln)": 6.44},
      {"sequence": "ATACATACAAAAATTTGTACATATTTCCAATAATGT [XGTACX_site2658]", "gcPBM binding intensity (ln)": 6.59},
      {"sequence": "AAATTTCCATTTGGGTGTACATGTGAAACTACAAAG [XGTACX_site208]", "gcPBM binding intensity (ln)": 6.62},
      {"sequence": "GCCATAATATGACATACACACACAAAAAAAAAAAAA [CACACA_site8353]", "gcPBM binding intensity (ln)": 6.37},
      {"sequence": "TAATTTTTTTTTAATTGTACATGTGAATATATTTCA [XGTACX_site4115]", "gcPBM binding intensity (ln)": 6.34},
      {"sequence": "GTTTACATTTTAAGAAGTACAAAATTTATGGTTAAA [XGTACX_site450]", "gcPBM binding intensity (ln)": 6.75},
      {"sequence": "TATATATATATATGTAGTACTCAATATTGTAGATTA [XGTACX_site3856]", "gcPBM binding intensity (ln)": 9.13},
      {"sequence": "AAATATATGTATATATGTACATATGTGTGCTATCAT [XGTACX_site1604]", "gcPBM binding intensity (ln)": 7.33},
      {"sequence": "TTTATTCTTGAGTATTGTACATATGTGTTTGTATAT [XGTACX_site5706]", "gcPBM binding intensity (ln)": 6.79},
      {"sequence": "AAAGGTGTCATATATGCACACAAAAGTAACACGCAC [CACACA_site8051]", "gcPBM binding intensity (ln)": 10.2},
      {"sequence": "GAAAGAATAAAATTTACACACATATAAATATACATA [CACACA_site7125]", "gcPBM binding intensity (ln)": 6.15},
      {"sequence": "TATTTGAAAACATAGGTGCACATTATTTTATAATCT [GTGCAC_site9947]", "gcPBM binding intensity (ln)": 10.1},
      {"sequence": "AGGAGGATGCATATGGCACACATTATGAAACTGTCG [CACACA_site299]", "gcPBM binding intensity (ln)": 7.95},
      {"sequence": "TTTTTTTTTGAATACAGTACACAAGTGTTAAGTTTA [XGTACX_site7069]", "gcPBM binding intensity (ln)": 6.01},
      {"sequence": "TGTTCTTTGTTCAGCGCATGTAAAATAAAATAAAAT [TGCATGCA_site629]", "gcPBM binding intensity (ln)": 6.61},
      {"sequence": "TATGAATATCTATACACACACATATATATACCCACT [CACACA_site4963]", "gcPBM binding intensity (ln)": 6.84},
      {"sequence": "GATTGATTATATGTGTGTACTTATATGTTAAAAAAA [XGTACX_site4784]", "gcPBM binding intensity (ln)": 6.69},
      {"sequence": "TTTTTATTTATATGATACTTATATATATATATATAT [CACACA_negctrl_site462]", "gcPBM binding intensity (ln)": 9.28},
      {"sequence": "TCTTTTAAAAAAATTTGTACATATTTTTTGTATTAT [XGTACX_site67]", "gcPBM binding intensity (ln)": 6.64},
      {"sequence": "TTCTTAATATTGCATGCACACTATATAATAATTGAA [CACACA_site4720]", "gcPBM binding intensity (ln)": 9.18},
      {"sequence": "ACACTAACATCATATCGTACATTTGTTAATTTATAA [XGTACX_site8654]", "gcPBM binding intensity (ln)": 6.66},
      {"sequence": "TATTTATTTTTTTTTGTGCACTTAATATAATCTTAC", "gcPBM binding intensity (ln)": 9.51},
      {"sequence": "TTTTCCCTCTTATTCACACAAAAAAAATAAAATAAA [CACACA_site4656]", "gcPBM binding intensity (ln)": 6.5},
      {"sequence": "ATATAATAATATTATACATGCAAAATATGTTCTTCA [TGCATGCA_site115]", "gcPBM binding intensity (ln)": 6.67},
      {"sequence": "ATCGCATATACATTATATTTTATAATAATTATTTTT [GTGCAC_negctrl_site48]", "gcPBM binding intensity (ln)": 7.01},
      {"sequence": "AGACTATCATTTTTTTAACACACAAAAAAAATAAAA [CACACA_site9173]", "gcPBM binding intensity (ln)": 6.35},
      {"sequence": "TAACAAATATTATTTTGTACATAATATATATATATA [XGTACX_site6898]", "gcPBM binding intensity (ln)": 8.68},
      {"sequence": "TATTTTTTTATTTATTGTACTTTAAAAAAAATTAAA [XGTACX_site6167]", "gcPBM binding intensity (ln)": 6.61},
      {"sequence": "AATACACACCTGTGGGTGCTTATAATAAGCCACAAA", "gcPBM binding intensity (ln)": 6.61},
      {"sequence": "ATATATTTATATTATACACACAAAAATATTTTGTAT [CACACA_site6262]", "gcPBM binding intensity (ln)": 6.61},
      {"sequence": "TATATATATTAATTTATTTATTTGTTTATTTATTTA [CACACA_negctrl_site185]", "gcPBM binding intensity (ln)": 6.41},
      {"sequence": "TTATAAAAATATTACGCACACACAAACTTATTCATT [CACACA_site1970]", "gcPBM binding intensity (ln)": 7.47},
      {"sequence": "GGGAAACGATTTAATACACACACGTATTATATATAT [CACACA_site1160]", "gcPBM binding intensity (ln)": 7.22},
      {"sequence": "ATATAAAATATGAGTAGTACATATTTTCTCATCTTA [XGTACX_site8595]", "gcPBM binding intensity (ln)": 6.05},
      {"sequence": "CACAAAAGTAAGCACGCACACACAACATGAAATAAA [CACACA_site7938]", "gcPBM binding intensity (ln)": 6.79},
      {"sequence": "CATTTTTTGTAAAATCGTACATATACATAAAGTGGT [XGTACX_site3423]", "gcPBM binding intensity (ln)": 6.43},
      {"sequence": "AAAGACAAAAGGAATTGTACATAATATATAAAATAT [XGTACX_site2923]", "gcPBM binding intensity (ln)": 6.27},
      {"sequence": "AATTTTATTTAAAGTGCATGTAAAATTAAAACTTTT [TGCATGCA_site989]", "gcPBM binding intensity (ln)": 6.82},
      {"sequence": "TATGAATTTATCTACAACATTTGAAATAAATTAAAA [CACACA_negctrl_site79]", "gcPBM binding intensity (ln)": 6.04}
    ]}
  ]
}
